From patent publication US20240209113A1 (BEIGENE SWITZERLAND, published 2024)

Key:
Test in all cases: ELISA
TNFRSF7(CD27) = target: T1, TNFRSF7(CD27) (UniProt P26842 20-192, limits assumed)
T1 construct: Bought protein

TNFRSF1B(CD120b) = target: T2, TNFRSF1B(CD120b) (UniProt P20333 23-257)
T2 construct: Bought protein
T2 sequence (looked up): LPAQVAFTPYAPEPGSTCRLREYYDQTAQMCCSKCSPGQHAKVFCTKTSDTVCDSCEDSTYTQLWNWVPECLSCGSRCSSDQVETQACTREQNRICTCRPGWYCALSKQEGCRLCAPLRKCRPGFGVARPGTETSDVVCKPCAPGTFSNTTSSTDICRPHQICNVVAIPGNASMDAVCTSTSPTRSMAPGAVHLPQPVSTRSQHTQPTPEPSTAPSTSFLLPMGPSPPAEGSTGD

TNFRSF18(GITR) = target: T3, TNFRSF18(GITR) (UniProt Q9Y5U5 26-161, limits assumed)
T3 construct: Bought protein
T3 sequence (looked up): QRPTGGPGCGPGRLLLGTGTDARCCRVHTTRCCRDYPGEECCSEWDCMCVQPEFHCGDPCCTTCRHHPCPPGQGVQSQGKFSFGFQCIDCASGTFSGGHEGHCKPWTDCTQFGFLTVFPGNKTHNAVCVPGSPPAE

TNFRSF1A(CD120a) = target: T4, TNFRSF1A(CD120a) (UniProt P19438 30-211, limits assumed)
T4 construct: Bought protein
T4 sequence (looked up): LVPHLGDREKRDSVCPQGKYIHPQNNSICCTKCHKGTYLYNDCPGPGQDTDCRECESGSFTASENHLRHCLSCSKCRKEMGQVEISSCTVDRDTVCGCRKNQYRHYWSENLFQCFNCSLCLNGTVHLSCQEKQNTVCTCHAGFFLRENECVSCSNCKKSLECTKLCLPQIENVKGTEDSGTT

human OX40 ECD-His = target: T5, human OX40 ECD-His (human, UniProt P43489 29-216)
T5 construct: also called human OX40-his; huOX40
T5 sequence: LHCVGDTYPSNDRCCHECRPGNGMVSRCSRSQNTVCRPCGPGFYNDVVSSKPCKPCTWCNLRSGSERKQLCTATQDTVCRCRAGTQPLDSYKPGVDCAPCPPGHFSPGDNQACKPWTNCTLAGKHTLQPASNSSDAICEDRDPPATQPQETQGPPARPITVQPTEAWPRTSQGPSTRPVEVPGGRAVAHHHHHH

human CD40 ECD-mIgG2a = target: T6, human CD40 ECD-mIgG2a (human)
human CD40 ECD-mIgG2a, sequence (chain, as listed by the source limits assumed): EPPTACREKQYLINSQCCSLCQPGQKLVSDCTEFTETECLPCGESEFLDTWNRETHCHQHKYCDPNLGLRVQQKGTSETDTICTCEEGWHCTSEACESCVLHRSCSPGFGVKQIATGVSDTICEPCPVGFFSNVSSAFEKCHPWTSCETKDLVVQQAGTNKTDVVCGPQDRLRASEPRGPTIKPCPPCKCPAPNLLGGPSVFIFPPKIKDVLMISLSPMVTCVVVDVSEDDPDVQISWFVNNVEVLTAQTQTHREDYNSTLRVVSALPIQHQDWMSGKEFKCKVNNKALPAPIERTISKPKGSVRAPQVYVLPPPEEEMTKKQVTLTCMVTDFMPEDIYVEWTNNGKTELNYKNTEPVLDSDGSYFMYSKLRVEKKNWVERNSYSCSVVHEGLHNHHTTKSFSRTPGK
T6 construct: also called huCD40; TNFRSF5(CD40)

Measured: binding result

TNFRSF7(CD27), sequence (P26842 20-192 limits assumed): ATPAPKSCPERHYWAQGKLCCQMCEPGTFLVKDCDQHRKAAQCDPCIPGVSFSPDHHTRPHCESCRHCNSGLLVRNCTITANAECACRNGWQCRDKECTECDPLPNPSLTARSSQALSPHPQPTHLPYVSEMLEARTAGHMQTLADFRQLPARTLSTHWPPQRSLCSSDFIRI

B1: BGA-5623 fused with wild type IgG1 Fc (Fc fusion)
chain: EVQLLESGGGLVQPGGSLRLSCAASGFTVSAEDVGWVRQAPGKGLEWVSAILDKGGSTYYAESVKGRFTISRDNAKNTLYLQMSSLRAEDTAVYYCARIVYHAGGGVTFDTRGQGTQVTVSS[omitted - human IgG1 Fc with changes]
no binding (tested: coated at 10 µg/ml): all assays above
